Measurements from the supplement of paper PMC11417369.
± gives the standard deviation of the averaged measurements. The list shows a part of the results.

Test system: PfAP2-G AP2 domain (GST-tagged)
Test: gcPBM binding intensity (ln(normalized median fluorescence intensity)); higher = stronger DNA binding
How it was run: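 Each value is the highest Masliner-normalised natural-log median intensity across replicate spots of either orientation of a probe. The probes were primer-extended double-stranded 36-bp intergenic genomic sequences on an Agilent 4 × 180k array, alongside negative controls, exposed for 1 h to GST-tagged P. falciparum DNA-binding domains expressed in E. coli. Bound protein was picked up with Alexa488 anti-GST antibody and scanned at 488 nm.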

Sequence	gcPBM binding intensity (ln)
ATTTTTTTTTTTTTTTTTTTTTTTTGGAGAAAGAGA [CACACA_negctrl_site1119]	9.77 ± 0.21
TTTATATACACACAGAAGAACAGAAATATTATATAT [TGCATGCA_negctrl_site483]	10.035 ± 0.007
AATATAAATAAAAACACACACACACCCATATATATA [CACACA_site2267]	10.1 ± 0.32
TTTATTTATCTGTATACACACTTTAATGAAAAGTTG [CACACA_site5400]	10.6 ± 0.3
ACAAATCTAAGATAGTGTACATTTATATATATATAT [XGTACX_site8740]	11.1 ± 0.55
TAAATGGGTGTTAATGCACACGATATGTCTATATAT [CACACA_site5321]	9.955 ± 0.064
TCTACATATTAATTATGTACGAATTATTATTAGTAA [XGTACX_site6924]	11 ± 0.74
TATTTATTTTTCTGTTGTACTTTTCAACATGTTACA [XGTACX_site7457]	11.3 ± 0.73
GTCCCTATAAGGGGAACACACATAAATGGATATATA [CACACA_site6612]	10.4 ± 0.28
CATATTCATAAAAGTTGTACATGCAATTTTTTTTTT [XGTACX_site2261]	11.3 ± 0.82
TCAATAAAAAAAAACGCACACACAAATATATTCCAT [CACACA_site1223]	10.18 ± 0.028
TATTTATGTTCATATAAACACACGTAAAATTCAAGG [CACACA_site1538]	10.3 ± 0.23
CATTATATGATTTATGTGCACATTCATTTATTTTAA	10.5 ± 0.2
TATTAATAAAACCGTTGTACTACATACATAAATATT [XGTACX_site5578]	11.5 ± 0.86
AAAAATCAATTAGAAGAACACACGTAAATTTTTTTT [CACACA_site2396]	10.03 ± 0.035
ATATATATTATGTGTGTGCACTTTTGTTATTATTAT	10.3 ± 0.16
ATAACTAAATGATATTGTACAAAATAATTATATATT [XGTACX_site1331]	10.6 ± 0.3
ATACTATATATATAAGTGCATGTTCATTATACCTAA	10.04 ± 0.057
TAACATATTTTTAATACACACTTAAAAAAGTACTTA [CACACA_site4875]	11.3 ± 0.91
TATTACACATATTATACACACATATATTATATATAT [CACACA_site4951]	10.2 ± 0.2
TCTTCATACGACTAAAAAACATTAGACTGATAAAAA [CACACA_negctrl_site628]	10.1 ± 0.4
TTAAATTGAATTAGTTAACACACAACTTTTATTTCA [CACACA_site8921]	9.765 ± 0.092
TAAATCATTTCATGGCATTTACACAAAATTTTTTAA [CACACA_negctrl_site1260]	9.89 ± 0.042
TTGTGTTTTACATATACATGCAAATTTTTTTTTTTA [TGCATGCA_site303]	9.7 ± 0.13
ATATATATTTAAAAAAGTACAGAAGAAAATAACCCA [XGTACX_site642]	11.5 ± 0.75
